Among all 7,900 compounds or so, about 400 (5.1%) showed an effect of 50% or more. Some of the results follow.
Each compound was assayed against Parkinson's disease protein 7 (PARK7/DJ1) (human, UniProt Q99497) (assay: primary screen, percent inhibition; read as competition with a fluorescent probe by fluorescence polarization; higher = more effect of the substance). Settings: 100 µM.
Procedure, shortened: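 Covalent fragments at 100 μM final were incubated 2 h with 0.2 μM PARK7, then 20 nM probe JYQ-107 added for a further 2 h. Fluorescence polarization read at 480/520 nm; relative FP loss versus reference controls gave remaining enzyme activity.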

Sequence of Parkinson's disease protein 7 (PARK7/DJ1) (Q99497 whole entry, looked up, the tested form may be a part): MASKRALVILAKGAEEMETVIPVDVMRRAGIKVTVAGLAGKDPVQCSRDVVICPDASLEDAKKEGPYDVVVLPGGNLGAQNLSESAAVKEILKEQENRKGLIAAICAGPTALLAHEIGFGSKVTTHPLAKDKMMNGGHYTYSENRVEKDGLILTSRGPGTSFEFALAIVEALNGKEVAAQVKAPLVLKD

SMILES	Inhibition % [%]
c1cnc2c(c1)C1OC1c1cccnc1-2 (centres unmarked)	26.9
C=CC(=O)N1CC(NC(=O)C2CC2)C1	6.32
CC(C)NC(=O)C(C#N)=Cc1ccc(O)c(Cl)c1	1.49
Cn1ncc(C(F)(F)F)c1B1OC(C)(C)C(C)(C)O1	8.08
Cc1csc(C(C#N)=Cc2ccc(C(=O)O)cc2)n1	7.8
Sc1ccc(Cl)nn1	53.5
CN1CCOC(c2cccc(B3OC(C)(C)C(C)(C)O3)c2)C1.Cl (centres unmarked)	1.38
CN(C)c1ccc(C=C(C#N)C(=O)N2CCC2)cc1	-2.52
O=C(CCl)Nc1nc2c(F)c(F)c(F)cc2s1	-4.93
CC1(C)OB(c2sccc2C#N)OC1(C)C	3.29
O=C(CCl)NC(=O)Nc1ccc(Br)cc1	23.3
C=CC(=O)N1CCCC(C(=O)O)C1 (centres unmarked)	5.18
N#Cc1ccnc(C(=O)O)c1	1.71
Cc1ccc2oc(=O)n(S(C)(=O)=O)c2c1	38.3
C=CC(=O)N1CCC[C@H]1Cn1cc(C2CC2)nn1	7.52
N#Cc1c(NC(=O)c2cccc(F)c2F)nc2n1CCS2	10.5
Cc1nc(Cl)cc(C#N)n1	3.59
O=C(CS)Nc1ccccc1F	81.5

SMILES	Inhibition % [%]
COc1ccccc1NC(=O)CCCl	15.3
C=CC(=O)N1CC(C)S(=O)(=O)C(CC)C1 (centres unmarked)	6.18
NC(=O)CC1CCN(S(=O)(=O)C=Cc2ccccc2)CC1	5.56
N#Cc1nc(N[C@@H]2C=C[C@H](CO)C2)sc1Cl	8.78
Cc1nc(S)c2c(=O)n(C)c(=O)n(CC(C)C)c2n1	-2.59
Cc1nn(C)c(Cl)c1C=CC(=O)N1CCN(C)CC1C (centres unmarked)	14.1
CCC1CN(C(=O)CCl)CCO1 (centres unmarked)	33.6
C=CC(=O)Nc1ccc2c(C)noc2c1	4.18
Cc1cnc(CNc2ccc(C#N)nc2)o1	2.1
CNC(=O)N1CCN(S(=O)(=O)C=Cc2ccccc2)CC1	4.54
COc1cc(S(=O)(=O)F)ccc1O	17.3
CC(CCc1cccn1C)Nc1nccnc1C#N (centres unmarked)	1.08
CN(C(=O)CCl)C1CCS(=O)(=O)C1 (centres unmarked)	8.14
C=CC(=O)NC1CCc2nc(C(C)C)nn2C1 (centres unmarked)	9.96
O=C(NCCC(O)c1ccccc1)c1cccnc1S (centres unmarked)	3.79
Cl.ClCCN1CCSCC1	5.12
COc1ccc(B2OC(C)(C)C(C)(C)O2)cn1	3.67

From publication PMC9574860, “Chemical Toolkit for PARK7: Potent, Selective, and High-Throughput” (Journal of Medicinal Chemistry, 2022)
